For 89 compounds, survival results are on record in PubChem BioAssay AID463173 (ICCB-Longwood Screening Facility, Harvard Medical School, 2010).

Structures are written as SMILES. About 4,300 (8.3%) of roughly 52,000 compounds were called active. Cut-off read from the data, not from the text of the source: active = survival mostly below about 52% (no sharp cut-off); inactive = mostly above about 56%. Some of the results follow.

The subject of the test is DeltatarO mutant. Description: S. aureus survival, RN4220 and DeltatarO strains – OD600, teichoic acid synthesis inhibitors, primary screen (AID 463173). The settings on record: S. aureus RN4220 wild type/DeltatarO growth, OD600, 18 h, stronger effect = lower value, screened at 18.75 µg/mL (by protocol).
As for `COCCCNC(=O)c1c(NC(=O)c2cc(=O)c3ccccc3o2)sc2c1CCCC2`, the survival is inactive: 110%.

Consider `Cc1ccc(N2CCN(c3c(CN4CCCC4)c(=O)oc4ccccc34)CC2)c(C)c1`, for which the survival is inactive: 67%.

For `O=C(NCc1ccccc1)c1ccc2c(c1)N(Cc1cccc(Cl)c1)C(=O)c1ccccc1S2(=O)=O`, the survival was inactive: 93%.

As to `CCOC(=O)C1CCC(CN(Cc2c(Cl)cccc2Cl)S(=O)(=O)c2ccc(Cl)cc2)CC1` (centres undefined), the survival is inactive: 81%.

`CCn1ccc2cc(S(=O)(=O)N3CCC(C(=O)NCc4ccc(OC)cc4)CC3)ccc21`: the survival was active: 20%.

For `Cc1ccc2nc(-c3ccc(Cl)c(NC(=O)c4cccc([N+](=O)[O-])c4C)c3)oc2c1`, the survival was inactive: 126%.

For `Cc1ccccc1CN1C(=O)c2ccccc2Sc2ccc(C(=O)OCc3ccco3)cc21`, the survival is inactive: 85%.

As for `CCOc1ccccc1CNC(=O)c1cnc2c(-c3ccc(OCC)c(OCC)c3)c(C)nn2c1C`, the survival was inactive: 82%.

With `COc1ccc(NC(=O)C2CCN(c3nc4ccccc4nc3C(F)(F)F)CC2)cc1`, the survival was inactive: 124%.

Consider `Cc1cc(NC(=O)C2CCCCC2)no1`, for which the survival was inactive: 95%.

On to `COc1ccc(-c2cn3nc(N4CCC(C(=O)Nc5ccc(Cl)cc5C)CC4)sc3n2)cc1`, for which the survival was inactive: 71%.

For `Cc1oc(-c2ccc(C(=O)NCCc3ccc(Cl)cc3)cc2)nc1CSc1ccccc1`, the survival is inactive: 83%.

On to `COc1ccc(-n2nc(C(=O)NCCc3ccc(OC)c(OC)c3)c3c4ccccc4n(C)c3c2=O)cc1Cl`, for which the survival is inactive: 95%.

For `O=C(Cn1cc(SCc2ccccc2)c2ccccc21)N1CCCCCC1`, the survival is inactive: 83%.

As for `Cn1c(=O)c(=O)n(C)c2cc(S(=O)(=O)CCC(=O)Nc3cccc(C(F)(F)F)c3)ccc21`, the survival is inactive: 80%.

In the case of `COc1cc(OC)c(N(C)C(=O)C2CCCN(c3ncnc4c3nc3n4CCCCC3)C2)cc1Cl` (centres undefined), the survival is inactive: 67%.

Take `Cc1ccc(-c2nc3c(cnn3-c3ccccc3)c(=O)n2-c2cccc(Cl)c2)cc1`: the survival is active: 33%.

In the case of `CN(C)S(=O)(=O)c1ccc2c(c1)N(CC(=O)N1CCN(c3cccc(Cl)c3)CC1)CCS2`, the survival is inactive: 96%.

As for `O=C(N1CCOCC1)N1CCN(c2ccccc2)CC1`, the survival is inactive: 88%.

Consider `O=C1N/C(=N/N=C\c2ccco2)SC1Cc1cccc(C(F)(F)F)c1` (centres undefined), for which the survival was inactive: 56%.

As for `Cc1onc(-c2ccccc2)c1C(=O)Nc1ccc(S(=O)(=O)Nc2ncccn2)cc1`, the survival was inactive: 78%.

Consider `COc1cc(NC(=O)Nc2nnc(N3CCCCCC3)s2)cc(OC)c1`, for which the survival was inactive: 80%.

For the compound `CC1CCCN(Cc2c(O)ccc3c(=O)c(Oc4ccc(C(C)(C)C)cc4)c(C(F)(F)F)oc23)C1` (centres undefined), the survival is active: 17%.

Regarding `O=C(CCSc1nnc(-c2ccco2)o1)N1CCOCC1`, the survival is inactive: 87%.

For `COc1cc(/C=C/c2nc3cc(Cl)ccc3c(=O)n2-c2cccc(C(F)(F)F)c2)cc(OC)c1OC`, the survival was inactive: 96%.

As for `COc1ccc(-c2c(C#N)c(N)nc(OC)c2C#N)cc1`, the survival is inactive: 84%.

On to `O=C(COCc1cc(-c2ccco2)on1)Nc1cccc(O)c1`, for which the survival was inactive: 78%.

Consider `Cc1cc(C)cc(NC(=O)C(=O)NCCCN2CCOCC2)c1`, for which the survival was inactive: 80%.

For `Cc1ccc2cc3cc(C(=O)N4CCN(c5ccccc5)CC4)oc3nc2c1`, the survival was inactive: 61%.

Regarding `O=c1c(N2CCN(c3cccc(Cl)c3)CC2)csc2ccccc12`, the survival was inactive: 68%.

With `CCc1nn(CC(=O)NCc2ccccc2Cl)c(=O)c2cc3ccccc3n12`, the survival is inactive: 62%.

`CCOc1ccc(CN(C(=O)c2nc(SC)ncc2Cl)C2CCS(=O)(=O)C2)cc1` (centres undefined): the survival is inactive: 88%.

As to `CC(C)CNCC1OCc2ccccc2CO1`, the survival was inactive: 98%.

With `O=C(Nc1nc2ccc(S(=O)(=O)N3CCCC3)cc2s1)c1ccc(F)cc1`, the survival is inactive: 70%.

As for `C/C(CC1CC(COCCC(C)C)OC1=O)=N\NC(N)=S` (centres undefined), the survival was inactive: 88%.

In the case of `CCc1ccc(Oc2c(C(F)(F)F)oc3c(CN4CCN(CC)CC4)c(O)ccc3c2=O)cc1`, the survival is inactive: 78%.

On to `CC1CCCCN1CCCNC(=O)c1ccc2c(c1)sc1nc(-c3ccc(F)cc3)cn12` (centres undefined), for which the survival was active: 29%.

`CCOc1ccccc1CNC(=O)c1cn(-c2ccc(OC)cc2)c(=O)c2ccccc12`: the survival was inactive: 106%.

With `CN1CCN(C(=O)CCCC(=O)O)CC1`, the survival was inactive: 75%.

As for `COc1cccc(CNC(=O)CSc2n[nH]c(-c3ccccc3Cl)n2)c1OC`, the survival was inactive: 118%.

With `COc1cccc(C2=C(C(C)=O)Sc3nnc(C4CCCCC4)n3N2C(C)=O)c1`, the survival is inactive: 81%.

For `CCOc1ccc(NC(=O)[C@H]2O[C@@H]3OC(C)(C)O[C@@H]3[C@H]3OC(C)(C)O[C@H]32)cc1`, the survival was inactive: 99%.

For `Cc1cccc(NC(=O)CSc2nc(=O)n(Cc3ccco3)c3c2CCC3)c1C`, the survival was inactive: 72%.

As to `CCOC(=O)c1c(NC=O)sc2c1CCCC2`, the survival was inactive: 66%.

Regarding `CC(C)c1cc(C(=O)NC(C)c2ccccc2)no1` (centres undefined), the survival was inactive: 50%.

On to `Cc1cc(C)cc(NC(=O)Cn2nnc(C(=O)NCc3ccccc3Cl)c2N)c1`, for which the survival is inactive: 72%.

Regarding `COc1ccc(CCNC(=O)c2cc3c(s2)-c2c(C)cccc2OC3)c(OC)c1`, the survival is inactive: 85%.

With `CCOc1ccc(C(=O)Nc2ccccc2C(=O)OCc2cc(=O)n3nc(C4CC4)sc3n2)cc1`, the survival was inactive: 95%.

Consider `Cc1cccc2c1-c1sc(C(=O)NCc3ccc(Cl)cc3)cc1CO2`, for which the survival was inactive: 89%.

Take `Cc1cccc(N2CC(c3nc4ccccc4n3CCC3CCCCC3)CC2=O)c1` (centres undefined): the survival was active: 31%.

Regarding `Cc1ccc(-c2nc(S(=O)(=O)c3ccc(C)cc3)c(SCC(=O)Nc3ccc(F)cc3)o2)cc1`, the survival was inactive: 58%.

For the compound `CCN(Cc1ccccc1)C(=O)c1cc2c(=O)oc3ccc(C)cc3c2s1`, the survival was inactive: 82%.

As to `CCOC(=O)c1noc2ncnc(N3CCN(c4cccc(Cl)c4)CC3)c12`, the survival is inactive: 83%.

Regarding `CCOC(=O)N1CCc2c(sc3c2c(=O)n(-c2ccc(Cl)cc2)c(=O)n3Cc2cccc(OC)c2)C1`, the survival is inactive: 109%.

Turning to `COc1ccc(-c2nc3nc(C)cc(N4CCN(c5cccc(C(F)(F)F)c5)CC4)n3n2)cc1`, the survival is inactive: 45%.

Regarding `COCCCNC(=O)c1ccc(Cn2c(=O)c3ccccc3n(CC(=O)Nc3ccc(C)cc3C)c2=O)cc1`, the survival is inactive: 96%.

As to `Cc1nc2ccc(S(=O)(=O)NC(C(=O)N3CCN(c4ccc(Cl)cc4)CC3)C(C)C)cc2s1` (centres undefined), the survival is inactive: 60%.

For `CCc1ccc(NC(=O)Cc2csc(COc3cccc(C)c3)n2)cc1`, the survival is inactive: 88%.

Take `CCn1c(=O)cc(SCC(=O)NCCc2cccc(C)c2)c2ccccc21`: the survival is inactive: 69%.

In the case of `O=S(=O)(c1ccc2[nH]c3c(c2c1)CCCC3)N1CCN(c2cccc(C(F)(F)F)c2)CC1`, the survival is inactive: 72%.

Take `Cc1cc(C)cc(Nc2nc3ccccc3n3cnnc23)c1`: the survival is inactive: 79%.

With `COc1cc(C2N=C(N)Nc3nc4ccccc4n32)ccc1OCC(=O)O` (centres undefined), the survival was inactive: 91%.

For `COc1ccc(NC(=O)Nc2cccc(OCc3cc(=O)n4cccc(C)c4n3)c2)c(OC)c1`, the survival was inactive: 88%.

As for `COCCn1c(C)cc(O)c(C(c2ccc(Cl)cc2)N2CCN(c3ccccc3)CC2)c1=O` (centres undefined), the survival was inactive: 70%.

For `CCCCCSc1nnc2c(n1)OC(CC)Nc1ccc(Br)cc1-2` (centres undefined), the survival is inactive: 63%.

As for `CCC(=O)Nc1ccccc1-c1nc2ccccc2n(C(C)C(=O)Nc2cccc(Cl)c2C)c1=O` (centres undefined), the survival is active: 42%.

On to `CC(C)c1ccc(Nc2ncnc3c2nc2n3CCCC2)cc1`, for which the survival is inactive: 85%.

As to `COc1cc(NC(=O)CNC(=O)Cn2ccc3ccccc3c2=O)cc(OC)c1OC`, the survival is inactive: 123%.

With `COc1ccc(-c2cc(C(=O)NCc3ccc(F)cc3)no2)cc1`, the survival is inactive: 178%.

For `Cc1cc(C)cc(-n2ccnc2SCC(=O)Nc2ccc(C)cc2C)c1`, the survival is inactive: 79%.

For the compound `CC(=O)c1ccc(N2CCN(c3nc4c(S(=O)(=O)c5ccc(C)c(C)c5)nnn4c4ccc(Cl)cc34)CC2)cc1`, the survival is inactive: 86%.

As to `CCC(=O)N1CCc2cc(Br)cc(S(=O)(=O)CCC(=O)N3CCN(c4ccc(OC)cc4)CC3)c21`, the survival was inactive: 78%.

Take `CCC(C(=O)Nc1cc(OC)ccc1OC)n1c(=O)c(C(F)(F)F)nc2ccccc21` (centres undefined): the survival is inactive: 94%.

On to `O=C(CCCn1c(=O)c2ccccc2n(CC(=O)Nc2cccc(Cl)c2)c1=O)NCc1ccc2c(c1)OCO2`, for which the survival was inactive: 76%.

As to `CCOc1ccc2oc(=O)cc(CN3CCN(Cc4ccc(F)cc4)CC3)c2c1`, the survival is inactive: 83%.

Consider `Cc1nc2nc(C)c(CCC(=O)NCc3ccccc3)c(C)n2n1`, for which the survival was inactive: 86%.

For `CCOc1ccc2ncc3c(-c4cccc(OC)c4)nn(-c4ccccc4)c3c2c1`, the survival is inactive: 100%.

Regarding `Cc1ccc2occ(CC(=O)Nc3ccc(S(=O)(=O)N4CCC(C)CC4)cc3)c2c1`, the survival is active: 55%.

On to `O=C(CSc1ncc(-c2ccccc2)n1Cc1ccco1)Nc1cccc(I)c1`, for which the survival is inactive: 86%.

Regarding `O=C(Nc1cccc(F)c1)c1oc2ccccc2c1NC(=O)C12CC3CC(CC(C3)C1)C2`, the survival was inactive: 72%.

As to `CCCCCn1cc2c(c1-c1ccccc1Br)c(=O)n(C)c(=O)n2C`, the survival is inactive: 80%.

In the case of `O=S(=O)(c1ccccc1)c1nnn2c1nc(NCc1ccccc1)c1cc(Cl)ccc12`, the survival was inactive: 80%.

Consider `CC(C)c1ccc(NC(=O)CCS(=O)(=O)c2ccc3c(c2)CC(=O)N3C)cc1`, for which the survival was inactive: 91%.

With `CCCCNc1ncnc2c1nnn2Cc1ccccc1Cl`, the survival was inactive: 71%.

Consider `O=C(NCC1CCCO1)c1ccc(Br)cc1` (centres undefined), for which the survival is inactive: 78%.

On to `O=c1c2sc3ccccc3c2n(Cc2ccccc2)c(=O)n1CCc1ccccc1`, for which the survival is inactive: 71%.

Regarding `COc1ccc(C)cc1Nc1ncnc2c1c(-c1ccccc1)cn2-c1ccc(C)cc1`, the survival was inactive: 80%.

With `CCN(CCCNC(=O)CN1N=C(c2ccccc2)CCC1=O)c1ccccc1`, the survival was active: -5%.

As for `COc1ccc2ccccc2c1CN1CCN(C(=O)c2ccccc2F)CC1`, the survival is inactive: 83%.
